In all, about 360,000 compounds went through this assay and about 2,600 (0.72%) were called active. The inconclusive results got no clear call from the source; some entries with a clear call stand among them for comparison. The call rests on the fitted dose curve; in most records, active means well fitted inhibition curve with a large enough effect; inconclusive means small, poorly fitted or top-dose-only effect; inactive means no such curve, though single readings can be large or run the other way. A potency beside an inconclusive call is a rough fit, not a confirmed value.
Assay: Primary qHTS for Inhibitors of ATXN expression; further: nearly all actives have a fitted effect of over 55% in size
Settings: HEK-293 ATXN2-luciferase reporter, luminescence, 24 h; activity change, negative = inhibition: at 57 µM (top of the series)
In short: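 ATXN2-luciferase reporter cells (luciferase flanked by upstream and downstream ATXN2 gene portions) were treated 24 h at 37 °C with compounds at up to 57 uM. SteadyGlo luminescence gave expression; GF-AFC fluorescence gave viability.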
On the % scale 0 is the no-effect control and ±100 the full control effect; potency means the concentration at half of the fitted maximal effect; tags describe the fitted curve by direction and shape.

Potency, inconclusive:
Cc1csc2nc(-c3cccc(NC(=O)c4cccc(F)c4)c3)cn12 39.8 µM [inhibitor, single point], Cc1cccc(-c2noc(CN(C(=O)c3ccc(C)c(C)c3)C(C)C)n2)c1 22.4 µM [inhibitor, single point], Cc1ccc(NC(=O)c2ccc3nc(Cc4ccccc4)oc3c2)cc1F 2.24 µM [inhibitor, full curve, poor fit], COc1ccc(/C=C(\NC(=O)c2ccccc2)C(=O)OC[C@@H]2CCC[N+]3(C)CCCCC23)cc1OC (some centres not stated) 0.336 µM [inhibitor, partial curve, poor fit], CCCCCC(=O)N1C[C@@H](n2cc(-c3ccc(F)cc3)nn2)[C@H](O)C[C@@H]1c1ccc(Cl)cc1 25.1 µM [inhibitor, single point], CC(=O)N1CCCc2cc(S(=O)(=O)N(C)CC(=O)Nc3ccc(F)c(Cl)c3)ccc21 15.8 µM [inhibitor, partial curve, poor fit], O=C(Nc1cccc(S(=O)(=O)N2CCCC2)c1)c1ccc2c(=O)n3c(nc2c1)CCCCC3 16.8 µM [inhibitor, partial curve, poor fit], COc1ccc(Sc2nnc(Cc3ccccc3)c3ccccc23)cc1 39.8 µM [inhibitor, single point], CCOC(=O)c1oc2c(O)c(O)ccc2c(=O)c1-c1nncn1-c1ccccc1 28.2 µM [inhibitor, single point], CC(C)=CCC/C(C)=C/CNC(=O)C[C@H]1C[C@H](C(=O)N2CCOCC2)[C@@]2(C)c3[nH]c4cc(CCC(=O)N(C)C)ccc4c3CCN2C1=O 39.8 µM [inhibitor, single point], O=C(NCCc1ccc(Cl)cc1)c1ccc2nc(Cc3ccccc3)oc2c1 1.78 µM [inhibitor, full curve]

Potency, inactive:
Cc1ccc(NC(=S)NNC(=O)c2c([N+](=O)[O-])c(C)nn2C)cc1, O=C1C=C(c2cccc(CO)c2)C[C@@H](c2ccc(F)cc2)C1, COc1cccc(-n2nnnc2SCC(=O)N2CCCc3ccccc32)c1, CCOC(=O)c1c(C)oc2c1c(C=NCCO)c(O)c1ccccc12, O=C(NNC(=O)c1ccncc1)NC1CCCCC1

Activity change, negative = inhibition, inconclusive:
COc1ccc(CCNC(=O)C2CCN(S(=O)(=O)c3ccc(OC)cc3)CC2)cc1 -47% [inhibitor]
